# Measured values as given in PubChem BioAssay AID624296 (National Center for Advancing Translational Sciences (NCATS), 2012).
# Among all 350,000 compounds or so, about 9,900 (2.8%) were called active. The inconclusive results got no clear call from the source; some entries with a clear call stand among them for comparison. Calls follow the shape of the dose curve; as a rule, active = well fitted activation curve with a large enough effect; inconclusive = small, poorly fitted or top-dose-only effect; inactive = no such curve, though single readings can be large or run the other way. Potencies of inconclusive entries are left out as doubtful fits.
# Test: A quantitative high throughput screen for small molecules that induce DNA re-replication in MCF 10a normal breast cells. Also: nearly all actives have a fitted effect of over 50% in size. As to activity, positive = re-replication: % of control where 0% means no effect.
# Settings: MCF 10A DNA re-replication, Hoechst nuclear intensity, 48 h; activity, positive = re-replication: at 46.1 µM (top of the series)
# Potency is read from the fitted curve at half-maximal effect; tags tell the direction and shape of the fitted curve.
SMILES,Potency,"activity, positive = re-replication"
O=C1ON=C(c2ccccc2)/C1=C/c1cccnc1,"inconclusive [activator, full curve, poor fit]",
COc1ncnc(OC)c1S(=O)(=O)Nc1ccc(C(F)(F)F)cc1,,inactive: 1.32%
O=C(Cc1nc2ccccc2[nH]c1=O)c1ccc(Cl)cc1,"inconclusive [activator, partial curve, poor fit]",
O=c1[nH]nc(-c2ccc(NCCO)c([N+](=O)[O-])c2)c2ccccc12,,inactive: 3.23%
O=C(NNC(=O)C12CC3CC(CC(C3)C1)C2)c1cnccn1,,inactive: -3.03%
Cc1sc(NC(=O)C2CSC3(C)CCC(=O)N23)nc1-c1ccc(F)cc1 (stereo not given),"inconclusive [activator, partial curve]",
O=C(CSc1ccc(Br)c2cccc(Cl)c12)Nc1ccc(S(=O)(=O)Nc2nccs2)cc1,"inconclusive [activator, single point]",
CCOC(=O)c1c(C)[nH]c(C(=O)OCC(=O)NC2(C#N)CCCCC2)c1C,,inactive: -2.04%
Cc1c(Cl)cccc1NC(=O)Nc1ccc(C(=O)N2CCCC2)cc1,"inconclusive [activator, single point]",
COc1cc(/C=N/N(C)c2ccccc2)cc(Cl)c1O,,inactive: 20.3%
COc1ccc(CCN(C)C2CCCN(C(=O)CCSC)C2)cc1OC (stereo not given),"inconclusive [activator, single point]",
CCCCCc1ccc(-c2cn(Cc3ccc(C(=O)c4ccccc4)cc3)nn2)cc1,"inconclusive [activator, full curve, poor fit]",
CCc1ccc2c(c1)/C(=N/N(C)C(=S)NC)C(=O)N2,"inconclusive [activator, single point]",
COc1ccc(-n2c(NNC(C)=O)nc3sc4c(c3c2=O)CCCC4)cc1,,inactive: 18%
COc1ccc(C2=CSC3=NCCN23)cc1Br,"inconclusive [activator, partial curve, poor fit]",
C[C@H](CO)N1C[C@H](C)[C@@H](CN(C)Cc2ccncc2)Oc2c(NS(=O)(=O)c3ccccc3)cccc2C1=O,,inactive: 1.2%
Cc1cc(NC(=O)CC(C)C)c(=O)n(Cc2c(F)cccc2Cl)c1,"inconclusive [activator, partial curve, poor fit]",
O=C(O)CC1S/C(=N\N=C/c2ccccc2)N(c2ccc(O)cc2)C1=O (stereo not given),,inactive: -5.99%
CCOc1ccc(CN2CCN(Cc3nc(C(C)C)cs3)CC2CCO)cc1 (stereo not given),"inconclusive [activator, partial curve, poor fit]",
Cc1onc(-c2ccccc2)c1C(=O)Nc1nnc(COc2ccc(Cl)cc2)s1,"inconclusive [activator, partial curve]",
